# Changes are numbered by the printed parent chain. Names and notes keep the numbering of the source. These are yes or no findings as the source states them, for the method shown. Binding seen in cells or lysates may run through a third protein. Some entries that bind do so weakly or less than the wild type. Tags and fused reporters may be left off the sequences shown.
# T1: FLAG-tagged 14-3-3γ (mouse) (UniProt P61982)
# T1 sequence: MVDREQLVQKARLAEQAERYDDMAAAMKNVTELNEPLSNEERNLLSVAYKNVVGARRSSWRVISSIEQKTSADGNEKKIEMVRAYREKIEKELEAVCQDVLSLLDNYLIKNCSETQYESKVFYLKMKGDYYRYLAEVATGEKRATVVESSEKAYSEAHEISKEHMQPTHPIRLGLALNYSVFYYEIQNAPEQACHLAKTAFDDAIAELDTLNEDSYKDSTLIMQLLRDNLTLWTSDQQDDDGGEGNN
# B1: HA-tagged TMCC3-D1 (mutant deleting almost C-terminal half from TMCC3-N) (domain or fragment, UniProt Q8R310 1-210)
# chain: MPGSDTALTVDRTYSDPGRHHRCKSRVDRHDMNTLSLPLNIRRGGSDTNLNFDVPDGILDFHKVKLNADSLRQKILKVTEQIKIEQTSRDGNVAEYLKLVSSADKQQAGRIKQVFEKKNQKSAHSIAQLQKKLEQYHRKLREIEQNGVTRSSKDISKDSLKEIHHSLKDAHVKSRTAPHCLESSKSSMPGVSLTPPVFVFNKSREFANLI
# modifications: phosphoserine at 15 (detected by the anti-phospho-14-3-3 binding motif pAb)
# B2: HA-tagged N-terminal fragment of TMCC3 encompassing the large cytoplasmic region (domain or fragment, UniProt Q8R310 1-411)
# chain: MPGSDTALTVDRTYSDPGRHHRCKSRVDRHDMNTLSLPLNIRRGGSDTNLNFDVPDGILDFHKVKLNADSLRQKILKVTEQIKIEQTSRDGNVAEYLKLVSSADKQQAGRIKQVFEKKNQKSAHSIAQLQKKLEQYHRKLREIEQNGVTRSSKDISKDSLKEIHHSLKDAHVKSRTAPHCLESSKSSMPGVSLTPPVFVFNKSREFANLIRNKFGSADNIAHLKNSLEEFRPEASPRAYGGSATIVNKPKYGSDDECSSGTSGSADSNGNQSFGAGGTSTLDSQGKIAKIMEELREIKVTQTQLAEDIEALKVQFKREYGFISQTLQEERYRYERLEDQLHDLTELHQHETANLKQELASAEEKVAYQAYERSRDIQEALESCQTRISKLELHQQEQQTLQTDAVNAKVLL
# B3: HA-tagged TMCC3-D1-S15A (domain or fragment, UniProt Q8R310 1-210)
# chain: B1 chain with S15A
# B4: HA-tagged TMCC3-D1-S15/25/46A (domain or fragment, UniProt Q8R310 1-210)
# chain: B1 chain with S15A, S25A, S46A
# B5: HA-tagged TMCC3-D2 (mutant deleting the first 89 amino acids from TMCC3-D1) (domain or fragment, UniProt Q8R310 90-210)
# chain: DGNVAEYLKLVSSADKQQAGRIKQVFEKKNQKSAHSIAQLQKKLEQYHRKLREIEQNGVTRSSKDISKDSLKEIHHSLKDAHVKSRTAPHCLESSKSSMPGVSLTPPVFVFNKSREFANLI
# Target: T1, FLAG-tagged 14-3-3γ (mouse)
# Assay: co-IP; preliminary Co-IP analysis, data not shown; cells treated with serum depletion or an ER stressor
row,Binder,binding
1,B1,binds

# Target: T1, FLAG-tagged 14-3-3γ (mouse)
# Assay: co-IP; HEK293 cells co-transfected with HA-TMCC3 fragments and FLAG-14-3-3γ; Triton X-100 extracts (buffer A: 20 mM Tris-HCl pH7.5, 150 mM NaCl, 2 mM MgCl2, 1% Triton X-100); immunoprecipitation with mouse anti-Flag mAb, Protein G Sepharose; blot with anti-HA mAb and anti-Flag pAb
row,Binder,binding
1,B2,binds
2,B1,binds
3,B3,binds weakly
4,B4,binds weakly
5,B5,no binding
